Reference: PubChem BioAssay AID1159614 (National Center for Advancing Translational Sciences (NCATS), 2016)
Screen size: about 45,000 compounds; about 65 (0.1%) were called active. The call rests on the fitted dose curve; in most records, active means well fitted activation curve with a large enough effect; inconclusive means small, poorly fitted or top-dose-only effect; inactive means no such curve, though single readings can be large or run the other way. Some of the results follow.

Biological target: Galactocerebrosidase (Homo sapiens) (UniProt P54803)
Sequence of UniProt P54803 (P54803 whole entry, looked up): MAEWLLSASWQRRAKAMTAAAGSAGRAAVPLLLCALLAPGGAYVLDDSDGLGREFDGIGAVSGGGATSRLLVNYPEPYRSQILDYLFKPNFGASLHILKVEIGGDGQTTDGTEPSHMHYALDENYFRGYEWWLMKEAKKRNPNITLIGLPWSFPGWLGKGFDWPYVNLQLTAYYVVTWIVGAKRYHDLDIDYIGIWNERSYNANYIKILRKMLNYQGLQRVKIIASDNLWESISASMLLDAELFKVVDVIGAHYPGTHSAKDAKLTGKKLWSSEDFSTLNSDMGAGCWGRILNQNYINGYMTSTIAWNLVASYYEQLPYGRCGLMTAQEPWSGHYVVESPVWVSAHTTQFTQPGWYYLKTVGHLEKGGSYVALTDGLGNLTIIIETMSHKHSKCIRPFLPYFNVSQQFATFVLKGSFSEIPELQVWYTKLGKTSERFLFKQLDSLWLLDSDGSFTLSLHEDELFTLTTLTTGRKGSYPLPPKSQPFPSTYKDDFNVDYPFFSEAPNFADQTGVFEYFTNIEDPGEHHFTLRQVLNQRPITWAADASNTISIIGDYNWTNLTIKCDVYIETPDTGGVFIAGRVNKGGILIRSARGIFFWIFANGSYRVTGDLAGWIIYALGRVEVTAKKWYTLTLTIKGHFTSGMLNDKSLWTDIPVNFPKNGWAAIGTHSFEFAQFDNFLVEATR
Experiment: A Novel Cell-Based Assay to Identify Small Molecules for B -Galactocerebrosidase; further: 0% is about no effect; nearly all actives have a fitted effect of over 65% in size
Settings: 145M-Twi-hGALC-G270D cells (Twitcher mouse brain line with human GALC G270D), HMU-beta-Gal fluorescence, 48 h; series mostly up to 57.5 µM; activation: at the top concentration
How it was run: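 Fluorogenic HMU-b-Gal hydrolysis (0.1 mM final, pH 5.2 citrate-phosphate with 1 mg/mL sodium taurocholate; carbonate stop buffer) measures mutant GALC activity after compound treatment of live 145M-Twi Twitcher brain cells stably carrying human GALC-G270D, with wild-type GALC line alongside; activation sought.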

activation, inactive:
O=C(Cc1c(C(=O)O)[nH]c2ccccc12)Nc1cccc(C(F)(F)F)c1 21.7%
Cc1c(Cl)ccc2sc(N3CCN(C(=O)CS(=O)(=O)c4ccccc4)CC3)nc12 -15%
CCCN1CCN(CCCNC(=O)c2c(C)nn(-c3ccc(F)cc3)c2-n2cccc2)CC1 0.705%
CCOc1ccc(CNC(=O)Cn2c(=O)c3cccn3c3ccccc32)cc1 3.37%
COc1cccc(CNC(=O)CN2C(=O)CCn3nc(-c4cn(C)c5ccccc45)cc32)c1OC -17.5%
COc1cc(OC)cc(C(=O)Nc2ccc(S(=O)(=O)Nc3onc(C)c3C)cc2)c1 -20.4%
Cc1ccc(-n2c3c(cc(-c4nc(-c5ccc(Cl)cc5)cs4)c2=O)C(=O)CC(C)(C)C3)cc1 -14.2%
O=C(Cn1nc(C(F)(F)F)c2c1CCCC2)Nc1ccc(Cl)cc1 -7.35%
CCOC(=O)c1c(C)[nH]c(CCC(=O)Nc2cc(C)cc(C)c2)c1C 2.29%
O=C(NCCc1ccccc1)c1ccc(CSc2nc3ccncc3n2Cc2ccccc2)cc1 -8.61%
COc1ccc(NC(=O)Cn2ncc3c([nH]c4ccccc43)c2=O)cc1Cl -7.43%
CCN(CC)CCCNC(=O)c1cn(C)c2ccc(S(=O)(=O)N3CCOCC3)cc2c1=O -14.9%
Cc1ccc(NC(=O)CSc2nc(C)cc(C)c2C(=O)Nc2cccc(C)c2)cc1 -9.44%
CCc1ccc(N2C(=O)CSC23C(=O)N(Cc2cccc(F)c2)c2ccccc23)cc1 (centres undefined) -45.2%
CCOC(=O)c1cccc(NC(=O)c2cc(-c3ccc(Cl)s3)nc3ccccc23)c1 -12.3%
COc1ccc(OC(C)C(=O)NCc2nc(-c3ccc(Cl)cc3)no2)cc1 (centres undefined) -3.43%
COc1ccc(NC(=O)CNS(=O)(=O)c2cccs2)c(OC)c1 -17.7%
CCOC(=O)c1ccc2ncc(C(=O)OCC)c(Nc3ccc(C)c(Br)c3)c2c1 -14%
Cc1cccc(C(=O)Nc2cccc(C(=O)OCc3cc(=O)n4ccsc4n3)c2)c1 -22%
CCC(C(=O)NCc1ccccc1)n1ncn2c(cc3occc32)c1=O (centres undefined) -8.02%
Cc1ccc(NC(=O)c2cc3c(=O)n(Cc4cccnc4)ccc3nc2C)cc1F -19%
COc1ccc(Br)cc1CNC(=O)CN1C(=O)CSc2ccc(S(=O)(=O)N3CCOCC3)cc21 -14%
NS(=O)(=O)c1cc2c(cc1Cl)NC=NS2(=O)=O -14.9%
COc1ccc(OC)c(CNC(=O)c2cccc(NC(=O)N3CCSc4ncccc43)c2)c1 -13.9%
CC(C)Sc1ncc(Cl)c(C(=O)Nc2ccc(S(=O)(=O)N3CCCCC3C)cc2)n1 (centres undefined) -27.2%
O=c1c2oc3ccccc3c2n(Cc2cccc(C(F)(F)F)c2)c(=O)n1Cc1ccc2c(c1)OCO2 -3.64%
Cc1ccc(-n2nc(C)c3nc(CCC(=O)Nc4ccc(F)cc4)c(=O)n(C)c32)cc1 -11.2%
CCn1cc(C(=O)NC(C)c2ccccc2)c(=O)c2cc(S(=O)(=O)N3CCc4ccccc4C3)ccc21 (centres undefined) -5.9%
CCOc1ccccc1N(C)C(=O)NCc1noc2ccccc12 -12.4%
O=C(NCCc1ccc(Cl)cc1)c1cccn1-c1nnc(N2CCCC2)s1 -26.4%
COc1ccc(C(=O)c2cn(CC(=O)Nc3ccc4c(c3)OCO4)c3ccc(OC)cc3c2=O)cc1 -11.4%
CC(C)Nc1cccnc1N1CCN(C(=O)c2cc3cc(NS(C)(=O)=O)ccc3[nH]2)CC1 -15.9%
Cc1ccc(NC(=O)Cn2cc(S(=O)(=O)N3CCCC3)c(S(=O)(=O)N3CCCC3)c2)c(C)c1 -15.1%
COc1ccc(C(=O)N2CCC(C(=O)Nc3ccccc3Cl)CC2)cc1 0.501%
CCCn1cc(S(=O)(=O)c2ccccc2)c(=O)c2cc(F)c(N3CCCC3)cc21 11.1%
CCc1ccccc1NC(=O)c1cc(S(=O)(=O)NC2CCCC2)ccc1F -7.62%
Cc1ccc(C(=O)N/C(=C\c2cn(S(=O)(=O)N(C)C)c3ccccc23)C(=O)NCCCn2ccnc2)cc1 -22.4%
COc1ccc(NC(=O)c2ccco2)cc1NC(=O)COc1ccccc1Cl -21.6%
CCCn1ccc2c(OCC(=O)Nc3ccc(F)cc3F)cccc2c1=O -9.64%
Cc1cccc(OCC(=O)Nc2ccc3c(c2)N(C)C(=O)c2ccccc2S3)c1 -15.1%
COc1ccc(-n2nc(C(=O)N3CCN(c4cccc(C)c4)C(C)C3)c3c4ccccc4n(C)c3c2=O)cc1 (centres undefined) -15.1%
Nc1ccc(S(=O)(=O)Nc2ccccc2)cc1 -15%
Cc1cccc(NC(=O)CSc2nc3c([nH]c4ccccc43)c(=O)n2-c2ccc(F)cc2)c1C -15.8%
CC1CN(C(=O)Nc2ccc(C(=O)NCCc3ccccc3Cl)cc2)c2ccccc2S1 (centres undefined) -7.52%
CC(CNC(=O)CN1C(=O)COc2ccc(S(=O)(=O)N3CCCCC3)cc21)c1ccccc1 (centres undefined) -14%
Cc1ccc(-n2ncc(C(=O)NCCCN3CCc4ccccc4C3)c2C2CCN(C(=O)OC(C)(C)C)CC2)cc1C -9.07%
COc1ccc2c(c1)c1c(c(=O)n(Cc3ccccc3)c(=O)n1Cc1ccc(C)cc1)n2C 2.83%
Cc1ccccc1C(=O)Nc1ccc(C(=O)OCc2cc(=O)n3nc(C4CC4)sc3n2)cc1 -17.2%
O=C(Nc1ccc(Cl)cc1)C1CCN(S(=O)(=O)c2ccc(Br)s2)CC1 -9.37%
COc1ccc(-c2cc(C(F)(F)F)n3nc(C(=O)Nc4sc5c(c4C#N)CCC(C)C5)cc3n2)cc1OC (centres undefined) -9.53%
CCC(C)NC(=O)c1[nH]c2cc(OC)ccc2c1Sc1ccc(C)cc1 (centres undefined) -30.3%
CCOC(=O)C1CCN(C(=O)c2cc3ccc4ccc(C)[nH]c4c3n2)CC1 -14%
CCC1CN(C(=O)Nc2ccccc2C(F)(F)F)c2ccccc2S1 (centres undefined) -2.13%
CCOC(=O)c1cccc(NC(=O)c2cnn(-c3ccccc3)c2-n2cccc2)c1 -12.3%
CC(=O)c1ccc(N2CCN(S(=O)(=O)c3ccc4[nH]c5c(c4c3)CCCCC5)CC2)cc1 -24.9%
O=C(CSCc1cc(=O)c2ccccc2[nH]1)Nc1cccc(C(F)(F)F)c1 -22.4%
CC(=O)N1c2ccccc2C(=O)C1N1CCN(c2cc(Cl)ccc2C)CC1 (centres undefined) 3.89%
COC(=O)c1scc(-c2ccc(C)cc2)c1S(=O)(=O)Nc1c(C)cc(C)cc1C -19.1%
COc1ccc(NC(=O)CN2C(=O)CC(c3ccco3)Sc3ccccc32)cc1OC (centres undefined) -3.11%
